Potency data for one compound are collected here from PubChem BioAssay AID720532 (National Center for Advancing Translational Sciences (NCATS), 2013).

Hit rate of the full screen: of about 18,000 compounds, about 1,200 (6.7%) were called active. Roughly 16% stayed inconclusive and do not appear here. Calls follow the shape of the full dose curve; tested in HEK293 cells. A number of entries come with more than one value. This is not the full list of results. The source may hold further records. Results that share an entry repeat one measurement in other runs, samples, wells, individuals or studies.
Potency is read from the fitted curve at half-maximal effect.

The nature of this experiment: qHTS for Inhibitors of binding or entry into cells for Marburg Virus. The settings on record: Marburg virus pseudotype entry/binding inhibition, cell-based. (In general: In qHTS, concentration-response curves come from the screen itself.)
With `COc1c(C)c2c(c(O)c1C/C=C(\C)CCC(=O)O)C(=O)OC2`, the Potency result was “active: 398 nM, 1.41 µM, 1.26 µM, 891 nM [separate samples]”.
